In the RNAGym collection of RNA variant scans (doi:10.1073/pnas.2313332121):
This sample is rich in variants without activity.

B1: TPR 5TU (parent)
chain: GGAUCUUCUCGAUCUAACAAAAAAGACAAAUCUGCCACAAAGCUUGAGAGCAUCUUCGGAUGCAGAGGCGGCAGCCUUCGGUGGCGCGAUAGCGCCAACGUUCUCAACUAUGACACGCAAAACGCGUGCUCCGUUGAAUGGAGUUUAUCAUG

Variants of: B1
Assay: polymerase ribozyme fitness, log enrichment relative to wild type (log ratio); higher = more active; in vitro selection for triplet polymerase activity
How it was run: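 The heterodimeric triplet polymerase ribozyme's subunits were each mutagenized into PCR-built libraries and transcribed. Every library was selected once, in triplicate, by annealing with a biotinylated primer, the partner subunit and triplets, incubating frozen at −7 °C, gel-excising extended constructs, capturing on streptavidin beads and running RT-PCR. Input and output libraries were Illumina-sequenced, with genotypes kept only at ≥10 input reads and ≥1 read per output. Fitness, from inverse-variance-weighted replicate averages, is the base-2 logarithm of genotype enrichment over wild-type enrichment.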

Variant | polymerase ribozyme fitness (log ratio)
A49C G84U A107G U111G A120G | ≤ -4.2
A49C G152U | ≤ -4.2
G48U G86U | -1.58
A49C A142U | ≤ -4.2
G50A G68A C76A G92C C93U | ≤ -4.2
A49U A60U G83A G86A A115C G143C U148G A150U | ≤ -4.2
G50A U55A U78A G84C | ≤ -4.2
A49U C51A A66G C95U C105A | ≤ -4.2
G50A C79U A138G | ≤ -4.2
A49C C118U | ≤ -4.2
A49G U56A A66C G68C G81C C95A | ≤ -4.2
A49C A52C G65U C69G C93U | ≤ -4.2
A49C G74U G81C C99G A137U | ≤ -4.2
A49G U55G G88A U139C U145A | ≤ -4.2
A49C A97G | ≤ -4.2
G50A C93U U102A A122C A138G G152U | ≤ -4.2
G50A C57A G88A A120C U135G U144G | ≤ -4.2
A49C A73G C93U U127A | ≤ -4.2
G50A C79U | ≤ -4.2
A49C G71A G92U A115G U135C U146A | ≤ -4.2
A49C C116A G143C | ≤ -4.2

Variant | polymerase ribozyme fitness (log ratio)
A49C A73U C93U | ≤ -4.2
G48C U61A U78G C103A A110C A113C A147U | ≤ -4.2
A49G C85U G92C G94U C95U | ≤ -4.2
G50A C87U G128U U130A A138G | ≤ -4.2
G50A C85U U90G C105A G141U | ≤ -4.2
A49U U53G C57A U77A C85A C108A | ≤ -4.2
G48U A91G C96U C103U | ≤ -4.2
A49C A52G U53A A91G C93A U127G A142C | ≤ -4.2
G50A C87A A107U C131A | ≤ -4.2
A49G U56A G81C U82G C93U A122C | ≤ -4.2
A49C C85A C132A G141C | ≤ -4.2
G50A C93A A122G | ≤ -4.2
A49G A52C U61A A91C | ≤ -4.2
A49C G71C C85G C123A | ≤ -4.2
A49U A73U G88A C105A U144A | ≤ -4.2
A49U U77C C87A C125A G141C | ≤ -4.2
A49C U55A G70U G84A A106C C114U A119U G124C G136A | ≤ -4.2
A49G G58C G67C C85G G92C | ≤ -4.2
A49C C63U G84A | ≤ -4.2
A49U U90G G133C U134G U146C | ≤ -4.2
A49C A52U | ≤ -4.2

Variant | polymerase ribozyme fitness (log ratio)
A49C A52G | ≤ -4.2
A49C A91U U101A A120U | ≤ -4.2
G48C U77A C85A G100A C103G C125A | ≤ -4.2
G48C G84U U139A | ≤ -4.2
G50A U53G C99U U111G A120U | ≤ -4.2
G50A G140C | ≤ -4.2
A49C A66U G94C | ≤ -4.2
A49C C69G A89G A110U A142U | ≤ -4.2
A49C C51A C63G G68A C79G U90A A91U C95G C108U C114U U135G | ≤ -4.2
G50A C85A G88A A121G | ≤ -4.2
A49G U61A G65A G70C C85G | ≤ -4.2
G48U C75G A91C C96A | ≤ -4.2
A49C U109G | ≤ -4.2
A49U G68C | ≤ -4.2
A49C A120G | ≤ -4.2
A49U G83U C95G A120G G141A U148C | ≤ -4.2
G50A G74U G141C | ≤ -4.2
A49U C85A C103G | ≤ -4.2
G50A C57G C116A G128U U146G | ≤ -4.2
A49C G62A C87A G140C | ≤ -4.2
G50A A91G A121C U145G | ≤ -4.2

Variant | polymerase ribozyme fitness (log ratio)
A49C C85U U104G U145A | ≤ -4.2
A49G C79A C87G | ≤ -4.2
G50A U53A C85G | ≤ -4.2
A49G C76A A115G G117U C129G G136C | ≤ -4.2
A49C G50C G80U C85G U151A | ≤ -4.2
G48U G59U | 0.371
G48U C57U G84C C93U A150U G152A | ≤ -4.2
A49C A91U G94C C132U G136C | ≤ -4.2
A49U C85A | -1.86
A49U C85U | -2.25
G50A U55A A97C A147U U148A | ≤ -4.2
A49C G59C | ≤ -4.2
A49G G71A A107G U139G A142U | ≤ -4.2
A49G G65U G67C G124A | ≤ -4.2
A49G G58C | -0.689
A49C U55A G86A C99G A142U | ≤ -4.2
G48U C54A C93G | ≤ -4.2
G50A G83A C87A C93G G100U C132A | ≤ -4.2
A49C G83C C85G A89G U135A | ≤ -4.2
G50A C57U C93A U109G U134A U139A | ≤ -4.2
G48C U53G G88U U101A | ≤ -4.2
